According to PubChem BioAssay (NCATS):
Where “and” joins values, the source holds several entries; their conditions need not be identical. Equal values may be shown once. The shares of active, inactive and inconclusive entries below differ from those in the screen. Where the call is inconclusive, the potency comes from a doubtful curve fit. Calls of active or inactive are those of the source. Calls follow the shape of the dose curve; as a rule, active = well fitted cell-killing curve with a large enough effect; inconclusive = small, poorly fitted or top-dose-only effect, or effect the other way; inactive = no such curve, though single readings can be large or run the other way.

What was measured:
[1] = Viability qHTS for spleen associated tyrosine kinase inhibitor (SYKi) naive MV4-11 cells (AID 1963823); conditions: MV4-11 AML viability, CellTiter-Glo luminescence, 72 h; series mostly up to 45 µM; also: nearly all actives have a fitted effect of over 40% in size
Procedure, shortened: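 Compounds were dispensed acoustically onto plates, MV4-11 cells (SYKi-naive) added at 500 per well, and plates incubated 72 hr at 37 C. CellTiter-Glo was added and luminescence measured after 10 min.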

[2] = Viability qHTS for spleen associated tyrosine kinase inhibitor (SYKi) drug resistant MV4-11 cells (AID 1963824); also: nearly all actives have a fitted effect of over 35% in size
Procedure, shortened: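 SYK-inhibitor-resistant MV4-11 AML cells were seeded at 500 per well onto compound and cultured 72 hours (37 °C, 5% CO2). CellTiter-Glo was then added, and after 10 min at room temperature, luminescence gave viability.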
Potency is read from the fitted curve at half-maximal effect; tags tell the direction and shape of the fitted curve.

SMILES | Potency [1] | Potency [2]
O=C(Nc1cc(-c2ccccc2)nn1-c1ccccc1)c1ccc([N+](=O)[O-])cc1 | inactive | active: 18.4 µM
CC(C)NC(=O)N1CC[C@H](N=C2Nc3cc(F)ccc3N(CC(F)F)c3ccc(Cl)cc32)C1 | inconclusive: 2.81 µM [cytotoxic, partial curve] | inconclusive: 5.6 µM [cytotoxic, partial curve]
C=C1C(OC(=O)/C(C)=C\C)[C@@]23CCC4[C@@](C)(CCC[C@@]4(C)C(=O)O)C2CC[C@H]1C3OC(C)=O (stereo partly drawn) | inconclusive: 5.63 µM [cytotoxic, partial curve, poor fit] | inconclusive: 8.93 µM [cytotoxic, partial curve, poor fit]
C=C1CCC2C(C)(C)CC(=O)CC2(C)C1CCC(C)CCO (stereo not drawn) | inconclusive: 16.4 µM [cytotoxic, partial curve] | inconclusive: 20.6 µM [cytotoxic, partial curve]
CC(C)(C)NS(=O)(=O)c1cncc(-c2cc(F)c3nc(N)nn3c2)c1 | inconclusive: 6.51 µM [cytotoxic, partial curve] | inconclusive: 6.51 µM [cytotoxic, partial curve]
C=C(C)C1CC[C@]2(C(=O)O)CC[C@]3(C(=O)O)[C@H](CCC4[C@@]5(C)CC[C@H](O)C(C)(C)C5CC[C@]43C)C12 (stereo partly drawn) | inconclusive: 1.78 µM [cytotoxic, partial curve, poor fit] | inconclusive: 3.17 µM [cytotoxic, single point]
CC(CC(C#N)(c1ccccc1)C(C)C)N(C)C (stereo not drawn) | inactive | inconclusive: 26.6 µM [cytotoxic, partial curve, poor fit]
C=C1C(OC(C)=O)CCC2(C)CC3(O)OC(=O)C(C)=C3CC12 (stereo not drawn) | inconclusive: 20.2 µM [cytotoxic, partial curve, poor fit] | inconclusive: 18 µM [cytotoxic, single point]
CC1(C)CC[C@]2(C(=O)O)CC[C@]3(C)C(=CCC4[C@@]5(C)C[C@@H](O)[C@H](O)[C@@](C)(CO)C5CC[C@]43C)[C@@H]2[C@@H]1O (stereo partly drawn) | inconclusive: 12.6 µM [cytotoxic, single point] | inconclusive: 15.9 µM [cytotoxic, single point]
C[C@@H]1O[C@@H](OC(=O)Cc2ccccc2)[C@H](O)[C@H](O)[C@H]1O | inactive | inactive
O=C(O)CSc1cc(NS(=O)(=O)c2ccc(Br)cc2)c2ccccc2c1O | inconclusive: 20.6 µM [cytotoxic, partial curve] | inconclusive: 14.6 µM [cytotoxic, partial curve]
CC1CN(CC(=O)Nc2ccc3c(c2)Cc2cccc(-c4cc(=O)cc(N5CCOCC5)o4)c2S3)CC(C)O1 (stereo not drawn) | inconclusive: 4.61 µM [cytotoxic, full curve] | inconclusive: 6.51 µM [cytotoxic, partial curve]
CCN(CC)CCOC(=O)C(c1ccccc1)c1ccccc1 | inconclusive: 0.0841 µM [cytotoxic, full curve] | inconclusive: 0.006 µM [cytotoxic, full curve, poor fit]
C/C=C/c1ccc2oc(-c3ccc(O)c(OC)c3)c(C)c2c1 | inconclusive: 29.1 µM [cytotoxic, single point] | inconclusive: 20.6 µM [cytotoxic, single point]
C[C@@H]1C[C@H](C)CN(CCC(=O)Nc2ccc(Br)cc2)C1 | inactive | inconclusive: 23.1 µM [cytotoxic, partial curve, poor fit]
Fc1ccc(-n2cc(CCCCN3CCC4(CC3)OCc3ccccc34)c3ccccc32)cc1 | inconclusive: 4.61 µM [cytotoxic, full curve] | inconclusive: 5.8 µM [cytotoxic, full curve]
NC(=O)C1(N2CCCCC2)CCN(CCCC(=O)c2ccc(F)cc2)CC1 | inactive | inactive
COc1cccc(Cn2ncc3c4sc(S(C)=O)cc4n(C)c3c2=O)c1 (stereo not drawn) | inconclusive: 13 µM [cytotoxic, partial curve] | inconclusive: 18.4 µM [cytotoxic, partial curve]
Fc1ccc2nc(CCC#Cc3ccccn3)cn2c1 | inconclusive: 29.1 µM [cytotoxic, single point] | inconclusive: 20.6 µM [cytotoxic, single point]
CCCn1cnc2c(NCc3ccccc3)nc(N[C@H](CC)CO)nc21 | inconclusive: 29.1 µM [cytotoxic, single point] | inconclusive: 16.4 µM [cytotoxic, partial curve]

SMILES | Potency [1] | Potency [2]
Cc1c(N)c(=O)n(-c2ccccc2)n1C | inconclusive: 29.9 µM [cytotoxic, single point] | inconclusive: 33.5 µM [cytotoxic, single point]
O=C([C@@H]1CCCN(c2ccc3[nH]c(C4(n5cc(Cl)cn5)CC4)nc3n2)C1)N1CCCC1 | inconclusive: 23.1 µM [cytotoxic, single point] | inconclusive: 11.6 µM [cytotoxic, partial curve]
Cn1cc(-c2ccc3nnc(Sc4ccc5nn(C)cc5c4)n3n2)cn1 | inconclusive: 18.4 µM [cytotoxic, partial curve, poor fit] | inconclusive: 9.2 µM [cytotoxic, partial curve]
CC(=O)OC1C[C@@]2(C)[C@@H](CC[C@@H](C)[C@]23Cc2c(O)cc4c(c2O3)CNC4=O)C(C)(C)[C@@H]1O (stereo partly drawn) | inconclusive: 14.2 µM [cytotoxic, single point] | inconclusive: 7.96 µM [cytotoxic, single point]
NC(=O)[C@@H]1CC[C@H](c2ccc(OCc3ccccc3F)cc2)N1 | inconclusive: 25.9 µM [cytotoxic, single point] | inconclusive: 23.1 µM [cytotoxic, single point]
CC(=O)O[C@@H]1CC2C(C)(C)C(=O)C=C[C@]2(C)C2CC[C@]3(C)C(=CC(=O)[C@@H]3c3ccoc3)[C@@]21C (stereo partly drawn) | inconclusive: 14.2 µM [cytotoxic, single point] | inconclusive: 8.93 µM [cytotoxic, partial curve]
C/C=C(/C=C(C)/C=C/C=C/C=C(\C)C(=O)C12OC1C(O)(CCO)NC2=O)C(=O)OC (stereo not drawn) | active: 8.93 µM | active: 11.2 µM
CC(=O)OC1C(=O)C2C3OCC4=C3[C@@](C)(CC[C@@H]4O)CC[C@]2(C)[C@H]1C(C)C (stereo partly drawn) | inconclusive: 12.8 µM [cytotoxic, single point] | inconclusive: 10.1 µM [cytotoxic, partial curve]
COC(=O)C1=CO[C@@H](O[C@@H]2O[C@H](CO)[C@@H](O)[C@H](O)[C@H]2O)[C@H]2[C@@H]1[C@H](O)C[C@]2(C)O | inactive | inconclusive: 0.0071 µM [cytotoxic, full curve, poor fit]
CCNC(=O)[C@H]1O[C@@H](n2cnc3c(N)nc(NCCc4ccc(CCC(=O)O)cc4)nc32)[C@H](O)[C@@H]1O | inconclusive: 29.1 µM [cytotoxic, single point] | inconclusive: 13 µM [cytotoxic, partial curve, poor fit]
O=C(NO)c1cnc(N2CCN(S(=O)(=O)c3ccc4ccccc4c3)CC2)nc1 | inconclusive: 0.126 µM [cytotoxic, full curve, poor fit] | inactive
Cc1oc(S(=O)(=O)N2CCCCC2)cc1NC(=O)Nc1ccccc1 | inconclusive: 10.3 µM [cytotoxic, partial curve] | inconclusive: 14.6 µM [cytotoxic, partial curve]
CCN(c1cc(-c2ccc(CN3CCOCC3)cc2)cc(C(=O)NCc2c(C)cc(C)[nH]c2=O)c1C)C1CCOCC1 | inconclusive: 18.4 µM [cytotoxic, partial curve, poor fit] and inconclusive: 20.9 µM [cytotoxic, partial curve] | inconclusive: 16.6 µM [cytotoxic, partial curve]
CC(C)CCC[C@@H](C)[C@H]1CC[C@H]2[C@@H]3CC(=O)[C@H]4C[C@@H](O)CC[C@]4(C)[C@H]3CC[C@]12C | inconclusive: 5.8 µM [cytotoxic, full curve] | inconclusive: 8.2 µM [cytotoxic, partial curve]
CCOc1c2c(c(OCC)c3ccccc13)C(=O)N(c1ccc(CC(=O)NS(=O)(=O)c3ccccc3)cc1)C2 | inactive | inactive
O=C(OCC(COC(=O)c1cccnc1)(COC(=O)c1cccnc1)COC(=O)c1cccnc1)c1cccnc1 | inconclusive: 10.6 µM [cytotoxic, partial curve, poor fit] | inconclusive: 11.9 µM [cytotoxic, partial curve, poor fit]
CC(=O)OC[C@@]12C(=O)C[C@@H](C)[C@]3(C[C@@H](c4ccoc4)OC3=O)[C@H]1CC[C@H](OC(C)=O)[C@]21CO1 | inconclusive: 0.0056 µM [cytotoxic, full curve, poor fit] | inactive
O=C(O)CCc1nc2ccccc2[nH]1 | inconclusive: 26.6 µM [cytotoxic, single point] | inconclusive: 0.006 µM [cytotoxic, full curve, poor fit]
COc1cc(C2c3cc4c(c(O)c3CC(CO)C2C(=O)O)OCO4)cc(OC)c1O (stereo not drawn) | active: 2.52 µM | active: 2 µM
